Test results as given in PubChem BioAssay AID686979 (National Center for Advancing Translational Sciences (NCATS), 2013).
Values joined by “and” are separate entries in the source; they are usually repeats but may differ in a detail not shown here. Equal entries are not always repeated. The campaign covered roughly 420,000 compounds. About 50,000 (12%) were called active. The shares of active, inactive and inconclusive entries below differ from those in the screen. Calls follow the shape of the dose curve; as a rule, active = well fitted inhibition curve with a large enough effect; inconclusive = small, poorly fitted or top-dose-only effect; inactive = flat fitted curve, though single readings scatter. Where the call is inconclusive, the potency comes from a doubtful curve fit.
% is scaled to controls: 0 for no effect and ±100 for the full control effect; potency is read from the fitted curve at half-maximal effect; tags tell the direction and shape of the fitted curve.

Assay: qHTS for Inhibitors of human tyrosyl-DNA phosphodiesterase 1 (TDP1): qHTS in cells in presence of CPT; also: nearly all actives have a fitted effect of over 55% in size
Conditions: chicken DT40 Tdp1-/-;hTDP1 cells + 20 nM CPT, ATP luminescence, 48 h; activity change, negative = growth inhibition: at 46.2 µM (top of the series) unless noted
Procedure, shortened: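 Cell growth measured by CellTiter-Glo luminescence after a minimum 48 h, 37 C compound exposure with 20 nM CPT in Tdp1-knockout DT40 cells stably expressing hTDP1, seeded 400/well; qHTS titration format.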
With `Cc1ccc(NC(=O)c2sc(-n3nc(C)c(CCC(C)C)c3C)nc2C)cc1C` the Potency was inconclusive: 23.1 µM [inhibitor, single point].
For `Cc1csc(NC(=O)C2CCN(C(=O)CSc3nnc(C)n3Cc3ccccc3)CC2)n1`, the Potency was “inactive”.
In the case of `CCN(C(=O)c1cc2c(Cl)nc3ccccc3c2s1)c1cccc(Cl)c1`, the Potency is reported as “inactive”.
For `C=Cn1cc[n+](CC(=O)c2ccc(Cl)cc2)c1`, the Potency was inconclusive: 18.4 µM [inhibitor, single point].
In the case of `Cc1nnc(SCCn2c(Br)nc3c2c(=O)n(C)c(=O)n3C)s1`, the activity change, negative = growth inhibition is reported as inconclusive: -30.1% [inhibitor].
With `O=C(OCc1ccccc1)N1CCC2CC1c1ccc(N3CCN(Cc4ccc5c(c4)OCO5)CC3)cc12` (configuration not stated) the Potency was inconclusive: 29.1 µM [inhibitor, single point].
With `CC(C)(C)C(=O)c1c(N)[nH]c(C(=O)c2ccccc2)c1-c1ccc(F)cc1` the Potency was “inactive”.
In the case of `COc1ccc(NC(=O)N(C)C[C@H]2Oc3c(NC(=O)C4CC4)cccc3C(=O)N([C@H](C)CO)C[C@@H]2C)cc1`, the Potency is reported as “inactive”.
For `COc1cccc(OCc2cc(C(=O)N3CCCC3c3ccccn3)no2)c1` (configuration not stated), the Potency was inconclusive: 18.4 µM [inhibitor, single point].
With `O=C(NCC1CCCO1)C(c1ccc(F)cc1)N(C(=O)Cn1nnc(-c2ccc(F)cc2)n1)c1cccc(O)c1` (configuration not stated) the Potency was inconclusive: 25.9 µM [inhibitor, single point].
With `CCN(C(=O)CSC1=Nc2ccccc2C2CC=NN12)C1CCS(=O)(=O)C1` (configuration not stated) the Potency was inconclusive: 20.6 µM [inhibitor, partial curve].
With `CCCn1c(CNS(=O)(=O)c2ccc(C)cc2)nc2ccccc21` the Potency was inconclusive: 29.1 µM [inhibitor, single point].
With `Cc1ccc(N2NC(=O)/C(=C\c3cc4c(cc3[N+](=O)[O-])OCO4)C2=O)cc1C` the Potency was inconclusive: 23.1 µM [inhibitor, single point].
With `CC(/C=N/NC(=O)c1cccs1)=C\c1ccccc1` the Potency was “inactive”.
For `COc1ccc(NC(=O)c2ccccc2[N+](=O)[O-])cc1OC`, the Potency was “inactive”.
In the case of `CC(=O)Oc1ccc2c(c1)CCC1C2CCC2(C)C(OC(C)=O)CCC12` (configuration not stated), the Potency is reported as “inactive”.
With `CCOC(=O)c1cc2cc(OC)ccc2[nH]1` the Potency was inconclusive: 20.6 µM [inhibitor, partial curve, poor fit].
With `Cn1cccc1CC(=O)N/N=C/C(Cl)=C/c1ccccc1` the Potency was inconclusive: 20.6 µM [inhibitor, single point].
For `CN1c2cc(Cl)ccc2-c2nc(SCC(=O)Nc3ccc(F)cc3F)ncc2S1(=O)=O`, the Potency was active: 23.1 µM.
With `O=C(Nc1ccc(N2CCCC2)cc1)c1cc(Cl)ccc1Cl` the Potency was active: 23.1 µM.
In the case of `COc1ccc(C(C)(C)C)cc1NC(=O)c1cc(S(=O)(=O)N(C)C)ccc1N1CCCC1`, the Potency is reported as active: 20.6 µM.
In the case of `COc1cc(/C=N/NC(=O)c2ccncc2)ccc1OCC(=O)Nc1ccc(C)c(C)c1`, the Potency is reported as inconclusive: 20.6 µM [inhibitor, single point].
With `COc1ccc(NS(=O)(=O)c2cccs2)cc1S(=O)(=O)N1CCCCC1` the Potency was inconclusive: 32.6 µM [inhibitor, single point].
With `COc1ccc(C(CNC(=O)c2cccc(S(=O)(=O)N3CCCC(C)C3)c2)N(C)C)cc1` (configuration not stated) the Potency was inconclusive: 29.1 µM [inhibitor, single point].
With `CCN(CC)S(=O)(=O)c1ccc(N2CCCCC2)c(NC(=O)C2CSC3(C)CCC(=O)N23)c1` (configuration not stated) the Potency was inconclusive: 29.1 µM [inhibitor, single point].
In the case of `O=C(COc1ccccc1Cl)NCC(c1cccs1)N1CCOCC1` (configuration not stated), the Potency is reported as inconclusive: 5.8 µM [inhibitor, partial curve].
In the case of `COc1ccc(OC2CCN(S(=O)(=O)c3ccc(OC)cc3)CC2)cc1`, the Potency is reported as inconclusive: 23.1 µM [inhibitor, single point] and inconclusive: 29.1 µM [inhibitor, single point].
For `COc1ccc(CCN(C)CC(O)COC(c2ccc(F)cc2)c2ccc(F)cc2)cc1OC` (configuration not stated), the Potency was active: 16.4 µM.
In the case of `Cn1cccc1Cc1nnc(SCC(=O)Nc2ccc3c(c2)OCO3)n1-c1ccc(F)cc1`, the activity change, negative = growth inhibition is reported as inconclusive: -30.4% [inhibitor].
For `COC(=O)c1ccc(Cl)c(NC(=O)CN(c2ccccc2)S(=O)(=O)c2ccc(OC)cc2)c1`, the Potency was inconclusive: 20.6 µM [inhibitor, single point].
With `Cc1ccc(Nc2c([N+](=O)[O-])c(=O)oc3ccccc23)cc1` the Potency was inconclusive: 13 µM [inhibitor, partial curve, poor fit].
For `Cc1ccc(OCC(=O)c2cc(C)n(C3CC3)c2C)c([N+](=O)[O-])n1`, the Potency was inconclusive: 25.9 µM [inhibitor, single point].
For `C#CCn1cc(/C=N/Nc2nc3ccccc3[nH]2)c2ccccc21`, the Potency was inconclusive: 29.1 µM [inhibitor, single point].
With `O=C(NC1CCCC1)c1ccc(CSc2nc3ccncc3n2Cc2ccccc2F)cc1` the Potency was inconclusive: 16.4 µM [inhibitor, single point].
For `Cc1cc(-c2ccccc2)nc(N(C)NC(=O)c2ccc(Cl)cc2)c1S(C)(=O)=O`, the Potency was active: 14.6 µM.
With `O=C(NNC(=O)c1ccccc1-n1cccc1)c1ccc(Cl)c(Cl)c1` the Potency was inconclusive: 20.6 µM [inhibitor, single point].
With `CC[C@H](C)C(C(=O)N1CCN(C(=O)OC(C)(C)C)CC1)n1cc(C(CO)NC(=O)OC(C)(C)C)nn1` (some centres not stated) the Potency was inconclusive: 29.1 µM [inhibitor, single point].
In the case of `CC(=O)Nc1nonc1NC(=O)CSc1nc2ccccc2o1`, the Potency is reported as inconclusive: 23.1 µM [inhibitor, single point].
In the case of `C=C(C)CN(CC)C(=O)CSc1ccc(S(=O)(=O)N2CCN(C)CC2)cn1`, the Potency is reported as “inactive”.
In the case of `Cc1ccc(-c2noc(CSc3nc(N)cc(N)n3)n2)cc1`, the Potency is reported as inconclusive: 16.4 µM [inhibitor, partial curve].
In the case of `CN1/C(=C\C=C2/SC(=S)NC2=O)C(C)(C)c2ccccc21`, the Potency is reported as active: 8.2 µM.
With `CC1(C)CC(=O)C(C2C3=C(CC(C)(C)CC3=O)Oc3c(Br)cc(Br)cc32)=C(O)C1` (configuration not stated) the Potency was inconclusive: 23.1 µM [inhibitor, single point].
